# Measured values reported in the supplement of paper PMC8728848.
# This is one part of the list.
# B1: Pp2-A2 (Arabidopsis thaliana), Q07098 (protein)
# chain: MPSNGDLDRQIEQLMECKPLSEADVRTLCDQARAILVEEYNVQPVKCPVTVCGDIHGQFYDLIELFRIGGNAPDTNYLFMGDYVDRGYYSVETVSLLVALKVRYRDRLTILRGNHESRQITQVYGFYDECLRKYGNANVWKYFTDLFDYLPLTALIESQVFCLHGGLSPSLDTLDNIRSLDRIQEVPHEGPMCDLLWSDPDDRCGWGISPRGAGYTFGQDIAAQFNHNNGLSLISRAHQLVMEGFNWCQDKNVVTVFSAPNYCYRCGNMAAILEIGENMEQNFLQFDPAPRQVEPDTTRKTPDYFL
# Columns and labels:
# Assay in all cases: glycan array binding signal (z-score within array); higher = stronger binding
# Details in all cases: glycan notation: IUPAC condensed, linker removed
# [1] = target: GlcNAc(b1-3)Gal(b1-4)GlcNAc(b1-3)Gal(b1-4)GlcNAc
# Method in brief: (§1)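 The binding signal is a Z-score computed within each array. Data were drawn from 3228 arrays in the Consortium for Functional Glycomics database, restricted to those with a known protein sequence. Scores were averaged over arrays of the same protein sequence at different concentrations or buffers, and over linkers, and negative values can be taken as non-binding.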
# GlcNAc(b1-3)GalNAc = target: GlcNAc(b1-3)GalNAc
# Method in brief: as §1
# GlcNAc(b1-3)Man = target: GlcNAc(b1-3)Man
# Method in brief: as §1
# [2] = target: GlcNAc(b1-3)[GlcNAc(b1-4)][GlcNAc(b1-6)]GlcNAc
# Method in brief: as §1
# [3] = target: GlcNAc(b1-3)[GlcNAc(b1-6)]Gal(b1-4)GlcNAc
# Method in brief: as §1
# [4] = target: GlcNAc(b1-3)[GlcNAc(b1-6)]GalNAc
# Method in brief: as §1
# [5] = target: GlcNAc(b1-4)Gal(b1-4)GlcNAc
# Method in brief: as §1
# GlcNAc(b1-4)GlcNAc = target: GlcNAc(b1-4)GlcNAc
# Method in brief: as §1
# [6] = target: GlcNAc(b1-4)GlcNAc(b1-4)GlcNAc
# Method in brief: as §1
# [7] = target: GlcNAc(b1-4)GlcNAc(b1-4)GlcNAc(b1-4)GlcNAc(b1-4)GlcNAc
# Method in brief: as §1
# [8] = target: GlcNAc(b1-4)GlcNAc(b1-4)GlcNAc(b1-4)GlcNAc(b1-4)GlcNAc(b1-4)GlcNAc
# Method in brief: as §1
# [9] = target: GlcNAc(b1-4)[GlcNAc(b1-6)]GalNAc
# Method in brief: as §1
# [10] = target: GlcNAc(b1-6)Gal(b1-4)GlcNAc
# Method in brief: as §1
# GlcNAc(b1-6)GalNAc = target: GlcNAc(b1-6)GalNAc
# Method in brief: as §1
# GlcNAc3Prop(b1-4)GlcNAc = target: GlcNAc3Prop(b1-4)GlcNAc
# Method in brief: as §1
# [11] = target: GlcNAc6S(b1-3)Gal(b1-4)GlcNAc
# Method in brief: as §1
# Kdn(a2-3)Gal(b1-3)GalNAc = target: Kdn(a2-3)Gal(b1-3)GalNAc
# Method in brief: as §1
# Kdn(a2-3)Gal(b1-3)GlcNAc = target: Kdn(a2-3)Gal(b1-3)GlcNAc
# Method in brief: as §1
# Kdn(a2-3)Gal(b1-4)Glc = target: Kdn(a2-3)Gal(b1-4)Glc
# Method in brief: as §1
# Kdn(a2-3)Gal(b1-4)GlcNAc = target: Kdn(a2-3)Gal(b1-4)GlcNAc
# Method in brief: as §1
# [12] = target: Kdn(a2-3)Gal(b1-4)[Fuc(a1-3)]GlcNAc
# Method in brief: as §1
# Kdn(a2-6)Gal(b1-4)GlcNAc = target: Kdn(a2-6)Gal(b1-4)GlcNAc
# Method in brief: as §1
# [13] = target: Man(a1-2)Man(a1-2)Man(a1-3)Man
# Method in brief: as §1
# [14] = target: Man(a1-2)Man(a1-2)Man(a1-6)[Man(a1-3)]Man
# Method in brief: as §1
# Man(a1-2)Man(a1-3)Man = target: Man(a1-2)Man(a1-3)Man
# Method in brief: as §1
# [15] = target: Man(a1-2)Man(a1-3)[Man(a1-2)Man(a1-6)]Man
# Method in brief: as §1
# [16] = target: Man(a1-2)Man(a1-3)[Man(a1-2)Man(a1-6)]Man(a1-6)[Man(a1-2)Man(a1-2)Man(a1-3)]Man
# Method in brief: as §1
# [17] = target: Man(a1-2)Man(a1-3)[Man(a1-2)Man(a1-6)]Man(a1-6)[Man(a1-2)Man(a1-2)Man(a1-3)]Man(b1-4)GlcNAc(b1-4)GlcNAc
# Method in brief: as §1
# [18] = target: Man(a1-2)Man(a1-3)[Man(a1-6)]Man(a1-6)[Man(a1-2)Man(a1-3)]Man(b1-4)GlcNAc(b1-4)GlcNAc
# Method in brief: as §1
# [19] = target: Man(a1-2)Man(a1-6)[Man(a1-3)]Man(a1-6)[Man(a1-2)Man(a1-2)Man(a1-3)]Man
# Method in brief: as §1
# [20] = target: Man(a1-2)Man(a1-6)[Man(a1-3)]Man(a1-6)[Man(a1-2)Man(a1-2)Man(a1-3)]Man(b1-4)GlcNAc(b1-4)GlcNAc
# Method in brief: as §1
# Man(a1-3)[Man(a1-6)]Man = target: Man(a1-3)[Man(a1-6)]Man
# Method in brief: as §1
# [21] = target: Man(a1-3)[Man(a1-6)]Man(a1-6)[Man(a1-2)Man(a1-3)]Man(b1-4)GlcNAc(b1-4)GlcNAc
# Method in brief: as §1
# [22] = target: Man(a1-3)[Man(a1-6)]Man(a1-6)[Man(a1-3)]Man
# Method in brief: as §1
# [23] = target: Man(a1-3)[Man(a1-6)]Man(a1-6)[Man(a1-3)]Man(b1-4)GlcNAc(b1-4)GlcNAc
# Method in brief: as §1
# [24] = target: Man(a1-3)[Man(a1-6)]Man(b1-4)GlcNAc(b1-4)GlcNAc
# Method in brief: as §1
# Man(a1-6)Man = target: Man(a1-6)Man
# Method in brief: as §1
# Man(b1-4)GlcNAc = target: Man(b1-4)GlcNAc
# Method in brief: as §1
# Neu5Ac(a2-3)Gal = target: Neu5Ac(a2-3)Gal
# Method in brief: as §1
# [25] = target: Neu5Ac(a2-3)Gal(b1-3)GalNAc
# Method in brief: as §1
# [26] = target: Neu5Ac(a2-3)Gal(b1-3)GalNAc(b1-3)Gal(a1-4)Gal(b1-4)Glc
# Method in brief: as §1
# [27] = target: Neu5Ac(a2-3)Gal(b1-3)GalNAc(b1-4)[Neu5Ac(a2-3)]Gal(b1-4)Glc
# Method in brief: as §1
# [28] = target: Neu5Ac(a2-3)Gal(b1-3)GalNAc6S
# Method in brief: as §1
# [29] = target: Neu5Ac(a2-3)Gal(b1-3)GlcNAc
# Method in brief: as §1
# [30] = target: Neu5Ac(a2-3)Gal(b1-3)GlcNAc(b1-2)Man(a1-3)[Neu5Ac(a2-3)Gal(b1-3)GlcNAc(b1-2)Man(a1-6)]Man(b1-4)GlcNAc(b1-4)GlcNAc
# Method in brief: as §1
binder,measurement,setting,value
B1,glycan array binding signal (z-score),[1],-0.721
same,glycan array binding signal (z-score),GlcNAc(b1-3)GalNAc,-0.702
same,glycan array binding signal (z-score),GlcNAc(b1-3)Man,-0.611
same,glycan array binding signal (z-score),[2],-0.544
same,glycan array binding signal (z-score),[3],-0.375
same,glycan array binding signal (z-score),[4],-0.746
same,glycan array binding signal (z-score),[5],-0.624
same,glycan array binding signal (z-score),GlcNAc(b1-4)GlcNAc,-0.311
same,glycan array binding signal (z-score),[6],-0.415
same,glycan array binding signal (z-score),[7],0.035
same,glycan array binding signal (z-score),[8],-0.534
same,glycan array binding signal (z-score),[9],-0.771
same,glycan array binding signal (z-score),[10],-1
same,glycan array binding signal (z-score),GlcNAc(b1-6)GalNAc,-0.431
same,glycan array binding signal (z-score),GlcNAc3Prop(b1-4)GlcNAc,0.106
same,glycan array binding signal (z-score),[11],-0.07
same,glycan array binding signal (z-score),Kdn(a2-3)Gal(b1-3)GalNAc,0.64
same,glycan array binding signal (z-score),Kdn(a2-3)Gal(b1-3)GlcNAc,0.146
same,glycan array binding signal (z-score),Kdn(a2-3)Gal(b1-4)Glc,-0.322
same,glycan array binding signal (z-score),Kdn(a2-3)Gal(b1-4)GlcNAc,-0.146
same,glycan array binding signal (z-score),[12],0.287
same,glycan array binding signal (z-score),Kdn(a2-6)Gal(b1-4)GlcNAc,-0.256
same,glycan array binding signal (z-score),[13],-0.204
same,glycan array binding signal (z-score),[14],-0.271
same,glycan array binding signal (z-score),Man(a1-2)Man(a1-3)Man,-0.205
same,glycan array binding signal (z-score),[15],0.006
same,glycan array binding signal (z-score),[16],-0.378
same,glycan array binding signal (z-score),[17],-0.067
same,glycan array binding signal (z-score),[18],-0.219
same,glycan array binding signal (z-score),[19],-0.496
same,glycan array binding signal (z-score),[20],-0.088
same,glycan array binding signal (z-score),Man(a1-3)[Man(a1-6)]Man,-0.408
same,glycan array binding signal (z-score),[21],-0.359
same,glycan array binding signal (z-score),[22],0.061
same,glycan array binding signal (z-score),[23],0.217
same,glycan array binding signal (z-score),[24],-0.606
same,glycan array binding signal (z-score),Man(a1-6)Man,0.211
same,glycan array binding signal (z-score),Man(b1-4)GlcNAc,0.046
same,glycan array binding signal (z-score),Neu5Ac(a2-3)Gal,0.058
same,glycan array binding signal (z-score),[25],-0.047
same,glycan array binding signal (z-score),[26],-0.52
same,glycan array binding signal (z-score),[27],-0.138
same,glycan array binding signal (z-score),[28],0.985
same,glycan array binding signal (z-score),[29],-0.103
same,glycan array binding signal (z-score),[30],-0.494
